No constants are given. Whether binding was seen depends on the method and setting. In cells and extracts the contact can be indirect. Some results given as binding are weak or reduced against the parent protein; the word gives no strength. Blank lines part the entries; values can stand above or below the substance they belong to.
What was measured:
[1] = biological target: endogenous RBM4 (human (endogenous in A549)) (UniProt Q9BWF3); experiment: proximity ligation; endogenous proteins in fixed, permeabilised A549 cells; Duolink kit (DUO92101); for SRSF1 and LC3 in the absence or presence of HBSS and CQ for 4 h
[2] = biological target: endogenous PIK3C3 (human (endogenous in H1299 and A549)) (UniProt Q8NEB9); experiment: as above
[3] = biological target: Flag-Bcl-xS (UniProt Q07817); experiment: co-IP; 293 T cells (also H1299 cells) co-transfected; lysis buffer 50 mM Tris/HCl pH 7.5, 150 mM NaCl, 1 mM EDTA, 1% Triton X-100; Anti-FLAG M2 beads at 4 °C overnight; five washes with TBS, 0.1% Triton X-100; western blot
[4] = biological target: Flag-Beclin1 (UniProt Q14457); experiment: as above
[5] = biological target: Flag-PIK3C3 (UniProt Q8NEB9); experiment: as above

By UniProt entry, the sequences of proteins in these tests, tags left out. Where a name states a change or a piece, a line headed by the entry shows the natural chain unless it says otherwise. Chains listed by the source or under a name are the forms on record and can include a tag or linker.
UniProt Q9BWF3: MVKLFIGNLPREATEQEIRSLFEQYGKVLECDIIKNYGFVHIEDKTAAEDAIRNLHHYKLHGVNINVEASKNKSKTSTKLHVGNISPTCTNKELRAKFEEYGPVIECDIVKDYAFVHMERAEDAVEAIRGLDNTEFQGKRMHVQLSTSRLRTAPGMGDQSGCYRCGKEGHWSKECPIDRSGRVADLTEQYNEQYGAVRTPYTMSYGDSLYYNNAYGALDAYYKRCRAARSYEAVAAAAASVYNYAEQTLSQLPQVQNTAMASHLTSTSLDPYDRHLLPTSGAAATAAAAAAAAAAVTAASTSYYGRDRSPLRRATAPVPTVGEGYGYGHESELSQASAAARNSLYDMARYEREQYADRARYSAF
UniProt Q8NEB9: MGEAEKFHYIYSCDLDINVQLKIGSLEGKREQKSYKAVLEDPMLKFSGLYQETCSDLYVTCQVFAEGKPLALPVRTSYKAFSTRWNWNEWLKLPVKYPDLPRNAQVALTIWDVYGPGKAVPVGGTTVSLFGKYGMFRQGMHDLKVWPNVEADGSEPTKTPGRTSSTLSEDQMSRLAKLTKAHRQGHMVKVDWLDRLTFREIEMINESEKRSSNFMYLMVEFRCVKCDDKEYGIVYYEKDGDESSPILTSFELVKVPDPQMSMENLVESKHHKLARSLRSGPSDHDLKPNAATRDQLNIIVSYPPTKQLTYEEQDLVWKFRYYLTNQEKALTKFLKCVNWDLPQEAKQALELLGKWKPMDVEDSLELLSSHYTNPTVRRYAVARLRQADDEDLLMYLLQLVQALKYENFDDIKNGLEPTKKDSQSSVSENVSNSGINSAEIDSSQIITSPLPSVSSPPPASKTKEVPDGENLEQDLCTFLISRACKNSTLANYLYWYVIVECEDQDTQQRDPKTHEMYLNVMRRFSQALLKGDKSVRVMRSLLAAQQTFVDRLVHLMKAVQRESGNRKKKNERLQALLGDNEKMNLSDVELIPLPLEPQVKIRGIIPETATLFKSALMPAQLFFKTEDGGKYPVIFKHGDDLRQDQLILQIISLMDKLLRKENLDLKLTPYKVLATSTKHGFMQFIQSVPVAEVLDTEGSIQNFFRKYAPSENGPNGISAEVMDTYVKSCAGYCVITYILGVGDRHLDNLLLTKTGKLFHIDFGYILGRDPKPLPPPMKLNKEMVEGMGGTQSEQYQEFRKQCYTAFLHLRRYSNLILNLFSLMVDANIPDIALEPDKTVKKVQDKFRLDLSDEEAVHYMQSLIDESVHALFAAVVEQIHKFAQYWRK
Flag-Bcl-xS (Q07817, form named): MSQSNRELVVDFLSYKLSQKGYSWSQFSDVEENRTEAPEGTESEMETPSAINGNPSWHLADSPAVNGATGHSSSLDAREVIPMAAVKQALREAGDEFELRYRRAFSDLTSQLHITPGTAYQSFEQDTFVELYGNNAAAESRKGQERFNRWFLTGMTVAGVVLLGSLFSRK
UniProt Q14457: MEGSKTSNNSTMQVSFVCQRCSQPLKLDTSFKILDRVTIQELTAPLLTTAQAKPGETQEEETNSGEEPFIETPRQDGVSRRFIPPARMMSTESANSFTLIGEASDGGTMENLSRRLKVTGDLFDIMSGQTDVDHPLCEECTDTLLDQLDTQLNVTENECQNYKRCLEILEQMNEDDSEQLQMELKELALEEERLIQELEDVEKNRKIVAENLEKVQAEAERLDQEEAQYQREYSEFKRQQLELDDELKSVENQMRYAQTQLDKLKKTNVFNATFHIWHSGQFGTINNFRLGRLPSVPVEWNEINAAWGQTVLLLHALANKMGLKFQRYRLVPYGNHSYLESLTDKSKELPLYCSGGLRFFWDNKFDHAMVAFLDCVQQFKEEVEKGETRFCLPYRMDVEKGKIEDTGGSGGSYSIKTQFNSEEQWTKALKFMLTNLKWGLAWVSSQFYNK
UniProt Q07955: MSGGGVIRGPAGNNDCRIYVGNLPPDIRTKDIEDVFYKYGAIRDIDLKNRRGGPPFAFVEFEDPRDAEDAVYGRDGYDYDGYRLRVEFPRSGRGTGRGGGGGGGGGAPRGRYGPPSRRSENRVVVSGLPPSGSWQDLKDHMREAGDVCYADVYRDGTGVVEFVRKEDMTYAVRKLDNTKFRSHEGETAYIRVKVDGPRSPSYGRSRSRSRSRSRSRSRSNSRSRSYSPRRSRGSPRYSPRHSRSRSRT

- binding [1]: binds
- binding [2]: binds
Substance: endogenous SRSF1 (from UniProt Q07955 1-248)

- binding [3]: no binding
Substance: pEGFP-C1-Beclin1 (from UniProt Q14457 1-450)

- binding [4]: no binding
- binding [5]: binds
Substance: pEGFP-C1-SRSF1 (from UniProt Q07955 1-248)

From PMC7933324
